{"source": "the supplement of paper PMC3334620", "note": "The full ranking holds about 33,000 sequences; the median of “E-score (-0.5 to 0.5)” is about -0.054, and the highest 2% start at about 0.39. Some of the results follow.", "data": [{"molecular_target": "Ylr278c (UniProt Q05854)", "experiment": "PBM E-score (8-mer binding enrichment) (E-score (-0.5 to 0.5)); higher = stronger / more preferred TF binding; most listed sequences are background and not binding sites", "conditions": "protein concentration: 200 nM; construct: GST-DNA-binding domain", "outline": "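E-scores (a modified Wilcoxon-Mann-Whitney statistic) were assigned by the Universal PBM Analysis Suite to every ungapped eight-base word pooled with its reverse complement. The input came from universal all-10-mer Agilent arrays made double-stranded by primer extension and probed with GST-tagged yeast transcription factors at about 100-200 nM. Fluorescent anti-GST detected bound protein, and masliner normalised the scans.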", "values": [{"sequence": "CCGCGTGC", "PBM E-score": 0.164}, {"sequence": "CATACACA", "PBM E-score": -0.29}, {"sequence": "AATTAAAA", "PBM E-score": -0.084}, {"sequence": "ATTCCCGA", "PBM E-score": 0.338}, {"sequence": "ACGTTTAC", "PBM E-score": -0.157}, {"sequence": "TGTTTTAA", "PBM E-score": -0.0312}, {"sequence": "CGAATGGA", "PBM E-score": -0.121}, {"sequence": "AATGAATG", "PBM E-score": 0.0714}, {"sequence": "AGACTCAA", "PBM E-score": -0.227}, {"sequence": "CTAAAACA", "PBM E-score": -0.0571}, {"sequence": "CCTCGGTC", "PBM E-score": -0.0689}, {"sequence": "CATTAGAG", "PBM E-score": -0.183}, {"sequence": "CTTAGAAC", "PBM E-score": -0.0645}, {"sequence": "CATCCGGA", "PBM E-score": 0.436}, {"sequence": "ACCCACCA", "PBM E-score": -0.0109}, {"sequence": "ATGTCGAA", "PBM E-score": -0.0534}, {"sequence": "GGGGCGGA", "PBM E-score": 0.412}, {"sequence": "TACACTCA", "PBM E-score": -0.121}, {"sequence": "AGTAGTCC", "PBM E-score": 0.154}, {"sequence": "CTCTAGTA", "PBM E-score": -0.0247}, {"sequence": "AATTCTTC", "PBM E-score": 0.105}, {"sequence": "ACCACGAT", "PBM E-score": -0.249}, {"sequence": "GCTCGTGA", "PBM E-score": 0.0305}, {"sequence": "CTCTAACA", "PBM E-score": -0.269}, {"sequence": "AAGTGGCG", "PBM E-score": -0.0285}, {"sequence": "CATTCTGG", "PBM E-score": -0.108}, {"sequence": "CTGAAGGA", "PBM E-score": -0.204}, {"sequence": "CATTACAC", "PBM E-score": -0.143}, {"sequence": "GGTTCTAA", "PBM E-score": 0.0848}, {"sequence": "CGATATGC", "PBM E-score": 0.0231}, {"sequence": "CCTCTTTC", "PBM E-score": -0.0384}, {"sequence": "GTCCACCA", "PBM E-score": 0.00454}, {"sequence": "CAGTTTGG", "PBM E-score": -0.253}, {"sequence": "GCGTGAGC", "PBM E-score": 0.089}, {"sequence": "ATCCACCG", "PBM E-score": 0.139}, {"sequence": "CCCTTGAA", "PBM E-score": -0.0298}, {"sequence": "ACCGCTAT", "PBM E-score": 0.109}, {"sequence": "TAAGGAGA", "PBM E-score": -0.0918}, {"sequence": "ATTTGTGC", "PBM E-score": -0.0582}, {"sequence": "CCACCTGG", "PBM E-score": -0.207}, {"sequence": "ATGTTTCG", "PBM E-score": 0.0356}, {"sequence": "CGTGGTAA", "PBM E-score": -0.231}, {"sequence": "GCAATGCA", "PBM E-score": -0.168}, {"sequence": "AGAGCCTG", "PBM E-score": -0.374}, {"sequence": "ACTGGTTG", "PBM E-score": 0.059}, {"sequence": "AGTCAGAC", "PBM E-score": -0.0921}, {"sequence": "GAAAATGC", "PBM E-score": -0.0064}, {"sequence": "AGCCGATC", "PBM E-score": 0.144}, {"sequence": "CAGATACC", "PBM E-score": -0.0274}, {"sequence": "CCTATCAG", "PBM E-score": -0.242}, {"sequence": "ATCAACGG", "PBM E-score": 0.139}, {"sequence": "TCTAAGAA", "PBM E-score": -0.0197}, {"sequence": "ACAATTAC", "PBM E-score": -0.197}, {"sequence": "AGACCGCG", "PBM E-score": 0.105}, {"sequence": "ACTCGTAG", "PBM E-score": -0.123}, {"sequence": "GCCAGCGC", "PBM E-score": -0.0552}, {"sequence": "AACCCCTA", "PBM E-score": -0.103}, {"sequence": "AGAGATAG", "PBM E-score": -0.0754}, {"sequence": "GCCGGGCA", "PBM E-score": 0.304}, {"sequence": "ATACTTGA", "PBM E-score": -0.345}, {"sequence": "ACTTTGGG", "PBM E-score": -0.0123}, {"sequence": "AAGGTACG", "PBM E-score": -0.0771}, {"sequence": "CAGACTGC", "PBM E-score": -0.226}, {"sequence": "GTGAATGA", "PBM E-score": 0.0235}, {"sequence": "ACCCTTTA", "PBM E-score": -0.0529}, {"sequence": "ACGGCAAA", "PBM E-score": 0.203}, {"sequence": "AGCCCCCC", "PBM E-score": -0.285}, {"sequence": "CAATATCG", "PBM E-score": 0.0834}, {"sequence": "ATTATAAG", "PBM E-score": -0.0477}, {"sequence": "GCTTAGGA", "PBM E-score": -0.105}, {"sequence": "CCATTACA", "PBM E-score": -0.027}, {"sequence": "CGGAGCCA", "PBM E-score": 0.402}, {"sequence": "GAGGGCAC", "PBM E-score": -0.214}, {"sequence": "CCTATGCG", "PBM E-score": -0.0142}, {"sequence": "AACCGTCG", "PBM E-score": 0.0961}, {"sequence": "ATCCCGCA", "PBM E-score": 0.152}, {"sequence": "CATCGTGC", "PBM E-score": -0.217}, {"sequence": "AAAAGCGA", "PBM E-score": 0.103}, {"sequence": "GTCCTTGA", "PBM E-score": -0.223}, {"sequence": "CGCAGAGC", "PBM E-score": -0.0693}, {"sequence": "CTAACTGC", "PBM E-score": -0.033}, {"sequence": "AACCCCCC", "PBM E-score": -0.249}, {"sequence": "ATGCCCCC", "PBM E-score": -0.143}, {"sequence": "GCATCTTA", "PBM E-score": -0.122}, {"sequence": "ACCTACAG", "PBM E-score": -0.0218}, {"sequence": "CTCCGTGA", "PBM E-score": 0.425}, {"sequence": "CCAATTAC", "PBM E-score": 0.0104}, {"sequence": "AATGGTAG", "PBM E-score": -0.111}, {"sequence": "GACCACAA", "PBM E-score": 0.0467}, {"sequence": "GTCGCTGA", "PBM E-score": -0.11}, {"sequence": "CATCAAGG", "PBM E-score": -0.301}, {"sequence": "GTACTAAC", "PBM E-score": -0.0507}, {"sequence": "ACATACAG", "PBM E-score": -0.118}, {"sequence": "GAGACTAC", "PBM E-score": 0.0263}, {"sequence": "CCGAAAAC", "PBM E-score": 0.344}, {"sequence": "AAGACTGA", "PBM E-score": -0.224}, {"sequence": "AAATGCTG", "PBM E-score": -0.133}, {"sequence": "AGCGATGG", "PBM E-score": 0.0514}, {"sequence": "CTGGCCGC", "PBM E-score": -0.0564}, {"sequence": "CTCAGTAA", "PBM E-score": -0.0944}, {"sequence": "GAATAAGA", "PBM E-score": 0.0588}, {"sequence": "CTTGGTGA", "PBM E-score": -0.0321}, {"sequence": "AATTAAGC", "PBM E-score": 0.092}, {"sequence": "CCTGAGTA", "PBM E-score": -0.136}, {"sequence": "CCGGAAGG", "PBM E-score": 0.387}, {"sequence": "AACTATGC", "PBM E-score": 0.0447}, {"sequence": "CTTTAACC", "PBM E-score": -0.144}, {"sequence": "ACGTTGAG", "PBM E-score": -0.111}, {"sequence": "AAGCCAAA", "PBM E-score": -0.0886}, {"sequence": "CATAGCCC", "PBM E-score": -0.19}]}]}
